Assay results as given in the supplement of paper PMC10126150.
Values marked as one replicate rest on one cluster of the flow cell; about a third of the high ones do not repeat.

Test system: ATP
Test: switch fluorescence ratio, 500 uM ATP over buffer (Cy3 cluster intensity, sum of 5 cycles each) (fold (ratio)); higher = stronger signal-on switching upon ATP binding; sequences stand for … in TCGTCGGCAGCGTCAGATGTGTATAAGAGACAGTTTTTTTTTTTTTTTTTTTTTTTTT…TC
Settings: aptamer strand: ATP DNA aptamer (quencher-CACCTGGGGGAGTATTGCGGAGGAAGG + anchor), 100 nM annealed; ATP concentration: 500 uM; one replicate
Outline: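 Per cluster, summed Cy3 intensity from the target cycles was divided by that from the buffer cycles to give the fluorescence ratio, then averaged per switch-domain sequence. Clusters outside 100-1000 RFU were excluded. The Cy3-labelled switching-strand clusters, on a modified Illumina MiSeq flow-cell, were annealed to 100 nM quencher-labelled ATP aptamer and imaged in selection buffer, then after 15 min with 500 uM ATP at 22 °C, for five cycles with NaOH stripping and re-annealing between them.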
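Further: ATP exposure 15 min at 22 °C before imaging.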

| Sequence | switch fluorescence ratio |
| --- | --- |
| GTAGGAACGG | 0.979 |
| GTAGGAGGCA | 0.934 |
| GTAGGCCTCG | 0.949 |
| GTAGGCGCTT | 0.99 |
| GTAGGGAGAG | 1 |
| GTAGGGCGGA | 0.987 |
| GTAGGGGAAT | 1.02 |
| GTAGGGTTGG | 0.969 |
| GTAGGTACGA | 0.991 |
| GTAGGTAGCA | 1.02 |
| GTAGGTTTGC | 0.993 |
| GTAGTAAAGT | 1.01 |
| GTAGTATAAC | 1.01 |
| GTAGTCATAG | 1.06 |
| GTAGTCGGTT | 0.985 |
| GTAGTGCCGT | 0.995 |
| GTAGTGGCTA | 1.01 |
| GTAGTGGGAG | 0.965 |
| GTAGTGTCGG | 1.02 |
| GTAGTTGTAT | 0.939 |
| GTAGTTTATA | 0.952 |
| GTATAAAAGG | 0.968 |
| GTATAAGCGA | 1.02 |
| GTATAATGCA | 0.983 |
| GTATAATGGA | 1.01 |
| GTATATAAGC | 1.05 |

| Sequence | switch fluorescence ratio |
| --- | --- |
| GTATCCCGCT | 1.01 |
| GTATCGATTC | 1.01 |
| GTATCTGTGG | 0.968 |
| GTATGAGCAG | 0.958 |
| GTATGAGCGG | 0.955 |
| GTATGAGGAA | 1.02 |
| GTATGATC | 0.975 |
| GTATGCCT | 0.964 |
| GTATGCTGCT | 0.997 |
| GTATGGCATG | 0.998 |
| GTATGGCTGT | 0.979 |
| GTATGGGTTG | 1.03 |
| GTATGTAAGT | 0.993 |
| GTATTACAGA | 0.996 |
| GTATTAGCAA | 1.14 |
| GTATTCCTGT | 1.04 |
| GTATTTACCA | 1.04 |
| GTATTTCATC | 1.01 |
| GTATTTCTAT | 0.98 |
| GTATTTGTGA | 1 |
| GTATTTTAAG | 1 |
| GTCAAATGCG | 1.06 |
| GTCAAATTAT | 1 |
| GTCAACAGGT | 1.08 |
| GTCAACCCGG | 1.06 |
| GTCAAGAAGA | 0.995 |

| Sequence | switch fluorescence ratio |
| --- | --- |
| GTCAATCGAG | 1.03 |
| GTCAATGCAG | 0.953 |
| GTCACCGCCG | 1.12 |
| GTCACTAGTT | 1 |
| GTCACTCGGA | 0.986 |
| GTCAGAAACT | 0.976 |
| GTCAGAAATA | 0.996 |
| GTCAGAACGT | 0.991 |
| GTCAGACTCA | 1.02 |
| GTCAGATGTT | 0.967 |
| GTCAGGATGT | 1.01 |
| GTCAGTTCGT | 1.02 |
| GTCATAGCAG | 0.981 |
| GTCATATCAG | 1.01 |
| GTCATCCGTC | 1.02 |
| GTCATCGTTG | 1.01 |
| GTCATTATCC | 1.03 |
| GTCATTCGGA | 1.03 |
| GTCATTTTTT | 0.995 |
| GTCCAAAGTC | 0.971 |
| GTCCAATAGC | 1.1 |
| GTCCAATTCT | 0.999 |
| GTCCAGAAAA | 1.04 |
| GTCCAGGTAC | 1.23 |
| GTCCCAAATG | 1.07 |
| GTCCCCTGGC | 1.2 |

| Sequence | switch fluorescence ratio |
| --- | --- |
| GTCCCGCAGT | 4.29 |
| GTCCCTAGTA | 0.994 |
| GTCCGACTTT | 1.03 |
| GTCCGCATCA | 2.68 |
| GTCCGCGGGT | 1.07 |
| GTCCGGAATG | 2.54 |
| GTCCGGATGC | 1.39 |
| GTCCGTACGG | 1.04 |
| GTCCTAGAAT | 0.968 |
| GTCCTAGGGC | 1.05 |
| GTCCTCAGTC | 1.11 |
| GTCCTGGGAC | 1.01 |
| GTCCTGGGGA | 1.33 |
| GTCCTTAAAA | 0.972 |
| GTCGATCTAC | 1.05 |
| GTCGATGCTG | 1.01 |
| GTCGATTGCC | 1.02 |
| GTCGCAGTTC | 1.17 |
| GTCGCCAGCG | 0.988 |
| GTCGCGGGCC | 0.959 |
| GTCGCGTATC | 0.949 |
| GTCGCTTTCC | 1.24 |
| GTCGGAAAGT | 0.986 |
| GTCGGAGTTG | 0.962 |
| GTCGGGACGT | 0.971 |
| GTCGGGTGGG | 0.968 |

| Sequence | switch fluorescence ratio |
| --- | --- |
| GTCGTAACTT | 0.997 |
| GTCGTCAGGA | 1.01 |
| GTCGTCGCGG | 1.03 |
| GTCGTCTGCT | 1.06 |
| GTCGTCTGTG | 0.947 |
| GTCGTGGGAG | 0.963 |
| GTCTAAAAT | 1.01 |
| GTCTAAATGG | 1.01 |
| GTCTAACCGC | 1.02 |
| GTCTAAGCTC | 0.999 |
| GTCTAATTCG | 0.969 |
| GTCTAGTGAA | 1.09 |
| GTCTCAAGTC | 0.997 |
| GTCTCAGCAC | 1.26 |
| GTCTCCGGTA | 1.1 |
| GTCTGAGGGA | 0.984 |
| GTCTGATGTG | 1 |
| GTCTGTGTTG | 0.964 |
| GTCTTAAGGT | 1.01 |
| GTCTTCATAT | 0.978 |
| GTCTTTTTA | 0.955 |
| GTGAAAGAGA | 1.03 |
| GTGAAAGATA | 0.976 |
| GTGAACGG | 0.988 |
| GTGAAGAACG | 1.01 |
| GTGAAGCAGG | 1.03 |

| Sequence | switch fluorescence ratio |
| --- | --- |
| GTGAAGCATT | 1.02 |
| GTGACAAGAG | 0.979 |
| GTGACAGAGT | 0.952 |
| GTGACCAGGA | 1.03 |
| GTGACCCCGC | 1.19 |
| GTGACCTGT | 0.96 |
| GTGACGCCTT | 0.99 |
| GTGACTAGGG | 0.967 |
| GTGACTTTC | 0.965 |
| GTGAGAAGCA | 0.963 |
| GTGAGAAGGT | 0.961 |
| GTGAGAGATT | 0.969 |
| GTGAGAGCTC | 0.914 |
| GTGAGCAGGT | 1.01 |
| GTGAGCAGTT | 1.01 |
| GTGAGCCTGA | 1 |
| GTGAGCTCTG | 0.945 |
| GTGAGGCTGT | 0.949 |
| GTGAGGGAGG | 1 |
| GTGAGGGGAT | 0.985 |
| GTGAGGTCAA | 1.05 |
| GTGAGTGTTA | 0.973 |
| GTGATAAGGG | 1.04 |
| GTGATCAGCT | 0.976 |
| GTGATCCCTG | 0.984 |
| GTGATCGG | 0.968 |

| Sequence | switch fluorescence ratio |
| --- | --- |
| GTGATGATAG | 0.932 |
| GTGATTTAGC | 0.962 |
| GTGCAAGGGC | 1.11 |
| GTGCAATAAT | 1.53 |
| GTGCAGAGCA | 0.999 |
| GTGCATTAG | 1.27 |
| GTGCCGACCA | 1.02 |
| GTGCGAAGGA | 1 |
| GTGCGAATCC | 1.04 |
| GTGCGGCAGA | 1.07 |
| GTGCGTATGA | 0.983 |
| GTGCGTCGA | 1 |
| GTGCTAGTTG | 1.02 |
| GTGCTATAAC | 1.12 |
| GTGCTCCT | 1.01 |
| GTGCTCTTGT | 0.981 |
| GTGCTCTTTT | 1 |
| GTGCTGGTGT | 1.01 |
| GTGCTTTAGG | 0.935 |
| GTGGAACTT | 1.04 |
| GTGGACATTT | 1.02 |
| GTGGACGTAA | 1.12 |
| GTGGAGAACG | 1.01 |
| GTGGAGGTGC | 1.14 |
| GTGGATA | 1.02 |
| GTGGATAGTA | 0.986 |

| Sequence | switch fluorescence ratio |
| --- | --- |
| GTGGATCGCG | 0.959 |
| GTGGATGATA | 0.948 |
| GTGGCAGTAG | 1.04 |
| GTGGCCGCTG | 0.954 |
| GTGGCCGGGG | 0.926 |
| GTGGCGTCCG | 0.976 |
| GTGGCTATGT | 1.02 |
| GTGGCTGACA | 1.06 |
| GTGGCTGG | 1.02 |
| GTGGCTTCGA | 0.997 |
| GTGGGACGGT | 0.974 |
| GTGGGATTG | 1.03 |
| GTGGGGAAAT | 0.984 |
| GTGGGGCCTT | 0.998 |
| GTGGGGGAGG | 0.963 |
| GTGGGGTTCT | 0.919 |
| GTGGGTCAGC | 1.02 |
| GTGGGTCTAC | 0.983 |
| GTGGTAGCCT | 1.03 |
